Reference: publication PMC7819943, “Rice protein-binding microarrays: a tool to detect cis-acting elements near promoter regions in rice”
The list shows a part of the results.

What follows are sequences tested against T1, OsWOX13 (Oryza sativa, UniProt Q5QMM3 1-267) (assay: protein-binding microarray (RPBM); PBS, 2% BSA, 51.3 ng/ul salmon testes DNA, 50 uM zinc acetate, 200 nM TF, 25 C, 1 h; high values mean tight binding). Settings: protein: recombinant; tags: N-terminal polyhistidine and DsRed monomer fusion (pET32a); label: CyDye5-dUTP incorporated in the synthesized complementary strand; 3' TTTTT single-stranded linker to array surface; dsDNA, one strand shown.
T1 sequence: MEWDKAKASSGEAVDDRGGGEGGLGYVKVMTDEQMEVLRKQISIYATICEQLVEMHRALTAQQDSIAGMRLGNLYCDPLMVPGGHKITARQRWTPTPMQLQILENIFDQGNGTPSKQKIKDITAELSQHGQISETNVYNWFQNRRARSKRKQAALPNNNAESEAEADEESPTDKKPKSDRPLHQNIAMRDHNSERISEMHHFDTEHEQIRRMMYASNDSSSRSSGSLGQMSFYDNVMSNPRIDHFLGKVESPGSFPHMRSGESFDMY
Summary of the method: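 Binding signal here means per-feature fluorescence intensity in arbitrary units. The values were read on an Axon 4000B scanner after a custom Agilent array, double-stranded by primer extension with Cy5-dUTP, was incubated with 200 nM protein at 25 °C for 1 h in PBS with 2% BSA, salmon testes DNA and 50 µM zinc acetate, then washed. The proteins were transcription factors with an N-terminal polyhistidine tag and DsRed, expressed in E. coli BL21-CodonPlus and purified on Ni–NTA.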

Sequence | binding signal
AAATAATTAGTTGTACGGATGAATTAAGTACTACATAGTACGGAGTCACCTAGTGCAG | 13300 fluorescence intensity (a.u.)
CATTTGCCAATTTCAAATTTTCAATTTGCATTCCGTGTCACGGAGTCACCTAGTGCAG | 4160 fluorescence intensity (a.u.)
CAAGACAAACCCTGGAATCAATCAGCCTCCAAAGACAAGGCGGAGTCACCTAGTGCAG | 5840 fluorescence intensity (a.u.)
GCACGGTTATTTAAATTGAACTTTGACCGTAAGTAGCAGTCGGAGTCACCTAGTGCAG | 12200 fluorescence intensity (a.u.)
CAAATGCCGAACGATGAGTGATTGATCACTCGGACGTCACCGGAGTCACCTAGTGCAG | 8960 fluorescence intensity (a.u.)
GTGTAATCGGATCGTAGATTGGATGAGTAGTTTAAGAGAACGGAGTCACCTAGTGCAG | 3310 fluorescence intensity (a.u.)
GGAGTGTAATTTGTTTTGTTATTAGACCACGTTTAATACTCGGAGTCACCTAGTGCAG | 8990 fluorescence intensity (a.u.)
ACTAGATTAGTCCCAACTTAACTACAGCTTGCAGATGATGCGGAGTCACCTAGTGCAG | 9970 fluorescence intensity (a.u.)
GATTAGGATTGCTGAATTGATGCAGATATATCCCTCTCTCCGGAGTCACCTAGTGCAG | 5550 fluorescence intensity (a.u.)
CGTATAAATATAATATAATTACAGTGTTATTAAATTATATCGGAGTCACCTAGTGCAG | 8870 fluorescence intensity (a.u.)
TTCTATCTTGACTGTTGACTGAAAATTTTACTAGTACCTTCGGAGTCACCTAGTGCAG | 15100 fluorescence intensity (a.u.)
TCCTAAATTTTCTTTGATCCATCTCCATATATACTTACATCGGAGTCACCTAGTGCAG | 4910 fluorescence intensity (a.u.)
TCTATAAATTACCCAAAACTGCATCCAGAAAGAGCCACGTCGGAGTCACCTAGTGCAG | 6240 fluorescence intensity (a.u.)
CCTAATTAATCTATCATTAGCAAGTGTTTATGGTAGCACCCGGAGTCACCTAGTGCAG | 42700 fluorescence intensity (a.u.)
AACAAATAAGCTGCTAATTAATTAAGAACTTCCATTATTCCGGAGTCACCTAGTGCAG | 15000 fluorescence intensity (a.u.)
GTATAAATTATAAATCACACTTAAAGTATTATGAGTGATACGGAGTCACCTAGTGCAG | 18100 fluorescence intensity (a.u.)
TATAAGAAATAATTGAAAAGACCAGAACTGAATGTTGTACCGGAGTCACCTAGTGCAG | 6810 fluorescence intensity (a.u.)
AGATGGATAGATAGATAGATAGATAGGGCCGGCAACCCAGCGGAGTCACCTAGTGCAG | 26900 fluorescence intensity (a.u.)
GTTACCAGTGAGTCAATCATCTCCCTTTCTTTCCTCTCTTCGGAGTCACCTAGTGCAG | 10000 fluorescence intensity (a.u.)
CATGATTATTTCAGGTGGCTCCTCCTTGATGGGTTGCATTCGGAGTCACCTAGTGCAG | 29500 fluorescence intensity (a.u.)
CGAAGAAATTGTTCTAATTAACCTAGAGTTAATTCCCTAACGGAGTCACCTAGTGCAG | 9750 fluorescence intensity (a.u.)

Sequence | binding signal
GAGATAGATATAATCACAAAAGCTTCTAGAATGGCGGAAACGGAGTCACCTAGTGCAG | 8390 fluorescence intensity (a.u.)
AATAATTTAGTATTGGATGAGTTTCTATCCGTTCTGATTTCGGAGTCACCTAGTGCAG | 7120 fluorescence intensity (a.u.)
GATGATTACACTATGGCAAAGGAGGGCTGGAGGATTACGACGGAGTCACCTAGTGCAG | 11300 fluorescence intensity (a.u.)
TTAAAATAATAGCTAATACTTAATTTATCACGTGCTAATGCGGAGTCACCTAGTGCAG | 4890 fluorescence intensity (a.u.)
CACTATCAATTAAGCCCATTGGCTAAAACTACATTTTGTACGGAGTCACCTAGTGCAG | 15900 fluorescence intensity (a.u.)
CCGAAAATTGAGACACGAATTTATTAAGCTTAATTAATCCCGGAGTCACCTAGTGCAG | 22000 fluorescence intensity (a.u.)
GTGGCTTATAAATTGATGGCCACACCTTAGGCAACTTTTGCGGAGTCACCTAGTGCAG | 7700 fluorescence intensity (a.u.)
TGGGGTTTGATTATTTGACATTTTGGTATATTTTCATCAACGGAGTCACCTAGTGCAG | 9690 fluorescence intensity (a.u.)
TTGATTGTTCACTGTTAGTCTATCATCTACCCCAAAGGTTCGGAGTCACCTAGTGCAG | 32600 fluorescence intensity (a.u.)
CCCCAATCAACTTCTTCAATTATCCATGCATTCCTTACGCCGGAGTCACCTAGTGCAG | 23800 fluorescence intensity (a.u.)
ATATTAATTTTACGTTTCTAAATTATTGTTTTAGAAGTTACGGAGTCACCTAGTGCAG | 14300 fluorescence intensity (a.u.)
GATGACATTAATTAGCACTAATGATAATTGTTAATATTTTCGGAGTCACCTAGTGCAG | 25000 fluorescence intensity (a.u.)
GTTAATTTCTCTCTCGTTTGAGTGCTTCCAAATAAATTCCCGGAGTCACCTAGTGCAG | 3820 fluorescence intensity (a.u.)
TTGGTAATTTCATTCAGACATTGTTTGCAAGATTGCACCACGGAGTCACCTAGTGCAG | 12000 fluorescence intensity (a.u.)
TATATATATATATATATATATATATATATATAAACCATGCCGGAGTCACCTAGTGCAG | 21500 fluorescence intensity (a.u.)
CGGAATTAATCTGATTATGTGAGTGAATTGGCATTTTGAACGGAGTCACCTAGTGCAG | 30700 fluorescence intensity (a.u.)
ATAGTTACAGTGTAATTACATGAAAGTTACAGTGTAATTACGGAGTCACCTAGTGCAG | 3880 fluorescence intensity (a.u.)
AAGTGTTAATTACCTAGAGATCTTGTTGCTAGAGAAGAGGCGGAGTCACCTAGTGCAG | 16300 fluorescence intensity (a.u.)
TTAATTGGCATGCATAATATGAGGGCACATGCACTCGAGTCGGAGTCACCTAGTGCAG | 18000 fluorescence intensity (a.u.)
ATTGCTGATTGAGCATGTAGACATTGCTAGTGGTAGTACGCGGAGTCACCTAGTGCAG | 58000 fluorescence intensity (a.u.)
AATTAATTAAACCACCCCAAAGACAACTCTTCTTCAGGAACGGAGTCACCTAGTGCAG | 18500 fluorescence intensity (a.u.)
